Values belong to the binder of their own block, whether it stands above or below them.
Key:
human interferon β [1] = target: T1, human interferon β (human, UniProt P01574 22-187); experiment: cell-based or functional assay
human interferon β [2] = target: T1, human interferon β; experiment: SPR (Biacore), fusion protein captured by anti-human Fc, interferon injected

IC50, ISRE-luciferase assay in HEK 293 cells, 50 pM ligand (human interferon β [1]): 8.31e-11 M
Kd (human interferon β [2]): 0.0399 nM
B1: R2-R1-Fc (SEQ ID NO:6) (Fc fusion)
chain: RSISYDSPDYTDESCTFKISLRNFRSILSWELKNHSIVPTHYTLLYTIMSKPEDLKVVKNCANTTRSFCDLTDEWRSTHEAYVTVLEGFSGNTTLFSCSHNFWLAIDMSFEPPEFEIVGFTNHINVMVKFPSIVEEELQFDLSLVIEEQSEGIVKKHKPEIKGNMSGNFTYIIDKLIPNTNYCVSVYLEHSDEQAVIKSPLKCTLLPPGQESESAESAKRSKNLKSPQKVEVDIIDDNFILRWNRSDESVGNVTFSFDYQKTGMDNWIKLSGCQNITSTKCNFSSLKLNVYEEIKLRIRAEKENTSSWYEVDSFTPFRKAQIGPPEVHLEAEDKAIVIHISPGTKDSVMWALDGLSFTYSLVIWKNSSGVEERIENIYSRHKIYKLSPETTYCLKVKAALLTSWKIGVYSPVHCIKTTVENELPPPENIEVSVQNQNYVLKWDYTYANMTFQVQWLHAFLKRNPGNHLYKWKQIPDCENVKTTQCVFPQNVFQKGIYLLRVQASDGNNTSFWSEEIKFDTEIQAFLLPPVFNIRSLSDSFHIYIGAPKQSGNTPVIQDYPLIYEIIFWENTSNAERKIIEKKTDVTVPNLKPLTVYCVKARAHTMDEKLNKSSVFSDAVCEKTKPGNTS[… human IgG1 Fc with C220G (EU numbers) …]
notes: No copy number is stated for the tested protein (a dimer in a specific embodiment); also called parental R2-R1-Fc; R2 27-243-R1 28-436-Fc

IC50, ISRE-luciferase assay in HEK 293 cells, 50 pM ligand (human interferon β [1]): 5.48e-08 M
Kd (human interferon β [2]): 8.3 nM
B2: R2-Fc (SEQ ID NO:8) (Fc fusion)
chain: RSISYDSPDYTDESCTFKISLRNFRSILSWELKNHSIVPTHYTLLYTIMSKPEDLKVVKNCANTTRSFCDLTDEWRSTHEAYVTVLEGFSGNTTLFSCSHNFWLAIDMSFEPPEFEIVGFTNHINVMVKFPSIVEEELQFDLSLVIEEQSEGIVKKHKPEIKGNMSGNFTYIIDKLIPNTNYCVSVYLEHSDEQAVIKSPLKCTLLPPGQESESAESA[… human IgG1 Fc with C220G (EU numbers) …]
notes: It describes Fc fusions as forming multimers (a dimer in a specific embodiment), but gives no copy number for the tested protein

Kd (human interferon β [2]): 0.00829 nM
B3: R2(35-233)-R1(28-335)-Fc (SEQ ID NO:9) (Fc fusion)
chain: RSTDESCTFKISLRNFRSILSWELKNHSIVPTHYTLLYTIMSKPEDLKVVKNCANTTRSFCDLTDEWRSTHEAYVTVLEGFSGNTTLFSCSHNFWLAIDMSFEPPEFEIVGFTNHINVMVKFPSIVEEELQFDLSLVIEEQSEGIVKKHKPEIKGNMSGNFTYIIDKLIPNTNYCVSVYLEHSDEQAVIKSPLKCTLLPPGRSKNLKSPQKVEVDIIDDNFILRWNRSDESVGNVTFSFDYQKTGMDNWIKLSGCQNITSTKCNFSSLKLNVYEEIKLRIRAEKENTSSWYEVDSFTPFRKAQIGPPEVHLEAEDKAIVIHISPGTKDSVMWALDGLSFTYSLVIWKNSSGVEERIENIYSRHKIYKLSPETTYCLKVKAALLTSWKIGVYSPVHCIKTTVENELPPPENIEVSVQNQNYVLKWDYTYANMTFQVQWLHAFLKRNPGNHLYKWKQIPDCENVKTTQCVFPQNVFQKGIYLLRVQASDGNNTSFWSEEIKFDTEIQAFLLPPSG[… human IgG1 Fc …]
